± gives the standard deviation of the averaged measurements. The list shows a part of the results.
What follows are sequences tested on PfAP2-EXP AP2 domain (GST-tagged) (assay: gcPBM binding intensity (ln(normalized median fluorescence intensity)); higher = stronger DNA binding).
Procedure, shortened: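 The highest Masliner-normalised natural-log median intensity across replicate spots of either probe orientation is reported as binding intensity. GST-tagged P. falciparum DNA-binding domains expressed in E. coli were applied for 1 h to an Agilent 4 × 180k array of primer-extended double-stranded 36-bp intergenic genomic probes plus negative controls, and bound protein was detected with Alexa488 anti-GST antibody and scanned at 488 nm.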

Sequence	gcPBM binding intensity (ln)
TTTCCTTATAAAAATACACACAAACTTTAATTAAAA [CACACA_site7710]	8.36 ± 0.41
ATAACTTTATTCAGTTTGCACTTTTATAACAAAAGA	8.63 ± 0.16
ATTTTTTATATTTAGTGTACATGTTTTAATTTATAA [XGTACX_site7512]	8.9 ± 0.38
CTTATATAATTCGATAGTACATATTTTTATATATAT [XGTACX_site4045]	8.43 ± 0.38
TATATATATATAAGCACACAAACAAAAAAAATTATA [CACACA_site3897]	9.74 ± 0.27
ATATTTTTTAGTAAGACGAAATAAATAAATCTTTAT [CACACA_negctrl_site1778]	8.21 ± 0.52
TTTTCTTTTTTTTTTGTGCACATAATATATAATTAT	9.01 ± 0.25
TTTTTCCTATTTTTAGTGCACATATAAATAAATAAA [GTGCAC_site9821]	9.06 ± 0.35
ATTGAATATGTAAATGCACACCAAAAAAAAAAAAAA [CACACA_site9189]	8.67 ± 0.28
CGTATTTATAGAATTACACACCATATTGTAATTATT [CACACA_site7722]	8.47 ± 0.4
TTTTTTTTGTAATACGCATGCTAAAAATATTTATAA [TGCATGCA_site656]	9.27 ± 0.3
GTGTTTTTATTATTTTGTACACATATATTTAATATT [XGTACX_site2109]	9.24 ± 0.3
ATTTAAATAAGATATACACACAAGTAGAAGACTATG [CACACA_site806]	8.82 ± 0.55
TTTTCGATGTTGGTAGGAAGTTTGGTACACGTAGTA [TGCATGCA_negctrl_site145]	8.62 ± 0.32
GAATGTCTAATTTTGATGCACACTTTTGTGCAATTA [CACACA_site2902]	8.41 ± 0.12
AAAATTCATATATACACACACGCACATATATATATA [CACACA_site90]	10.14 ± 0.028
CAAAAAATTCAACACACACACACACCGATAAATAAA [CACACA_site8330]	8.57 ± 0.61
TTATATTATTCGTGTGTGCACGATATTTCATAATTG [GTGCAC_site9767]	8.41 ± 0.24
TTGTCCCTATAAGGGGAACACACATAAATGAATATA [CACACA_site8250]	8.4 ± 0.38
ATAATGTTTTATAATACACACATTATGTATATAAAT [CACACA_site4077]	8.36 ± 0.38
AAAACTATTTGTAAAAGTACATAATAAATAAATAAA [XGTACX_site7922]	8.69 ± 0.36
AAAAAAAAAAAAAACACACACACACCCATACAAAAT [CACACA_site1446]	8.78 ± 0.61

Sequence	gcPBM binding intensity (ln)
ATGCACTCATTGTGCACACGCATATTACGAAAAGAA [CACACA_site2638]	9.06 ± 0.071
AATAAATAAAAAACATGTACAAATATAATATAGCAT [XGTACX_site6429]	9.18 ± 0.5
AAGATTTGAAAAAATACACACAATAAAAAAATAAAA [CACACA_site3281]	8.73 ± 0.42
TATATATATATGTGTATACACACCTGATAAAGGTAT [CACACA_site2653]	9.89 ± 0.19
TATTTAACACCTTATACACACTTTCTTCCTTTTTTA [CACACA_site4590]	8.85 ± 0.5
TATACATATGAAAATACACACATACATACCTATATA [CACACA_site6888]	8.57 ± 0.47
TAATTGTACGCCAATACACACAGAATTATAATGTAG [CACACA_site6201]	8.82 ± 0.48
AATAGAAAAAAATAAGTGCATTTTGGTATTCATCAT [GTGCAC_site9614]	8.6 ± 0.3
GATATTGAGAAAGGGTGTACAAGATATTATACTATA [XGTACX_site3598]	8.55 ± 0.42
ACATAAATAATAAAAACACACATATGTACATATATA [CACACA_site1913]	8.72 ± 0.33
TTTTATGTAATTATTTGTACATATGCCTCTTAAACT [XGTACX_site748]	8.53 ± 0.41
AAATTTATATTCATTTGTACGTAATTTAAATTATAC [XGTACX_site5870]	8.54 ± 0.35
ACAAAATATACAAAATGTACAAAATTTACAAAATGT [XGTACX_site3544]	8.36 ± 0.3
AAAAAAAAAAAGCACACACACATATGTGTATTTATA [CACACA_site6578]	8.38 ± 0.5
TACTAGCAAATACATACACACACACCCATATACATA [CACACA_site9163]	8.69 ± 0.48
GTAATATATACAAAATGTACAAAACAATAACATGAT [XGTACX_site8575]	8.8 ± 0.39
ATCCAAACAAATAAAACATGCATAATATATATATAT [TGCATGCA_site766]	10 ± 0.48
CTCAAATAATTTTTTACACACATTATTTGAAATAAG [CACACA_site1290]	8.35 ± 0.33
ATGCTTTTATAAATAATTAAAAAAAAAAAAAAAAAA [TGCATGCA_negctrl_site533]	7.95 ± 0.45
TTTTTTTTTAATATTTGTACACAACATGAAACATTT [XGTACX_site473]	8.56 ± 0.43
TAAAATATTACGTGTACACATAAATAAAAATAAAAA [CACACA_site5066]	8.82 ± 0.18
TTTTATATTCCACAAAAAATTATATAATAATAGAAC [CACACA_negctrl_site1741]	8.74 ± 0.37
